# From the supplement of paper PMC12217912
# Some of the results follow. Sequences were assembled here from the parent chain. Values near 0.05 are background.
# B1: TEV protease; numbered along this chain (parent)
# chain: MGESLFKGPRDYNPISSSICHLTNESDGHTTSLYGIGFGPFIITNKHLFRRNNGTLVVQSLHGVFKVKDTTTLQQHLVDGRDMIIIRMPKDFPPFPQKLKFREPQREERICLVTTNFQTKSMSSMVSDTSCTFPSGDGIFWKHWIQTKDGQCGSPLVSTRDGFIVGIHSASNFTNTNNYFTSVPKNFMELLTNQEAQQWVSGWRLNADSVLWGGHKVFMVKPEEPFQPVKEATQL
# Variants of: B1
# Test: raw area under fraction-flipped curve 0-4 h after induction (AUC4h, not background-subtracted), DNA-recorder readout of cleavage of the substrate (dimensionless); higher = more cleavage of the substrate by the protease variant
# Conditions: temperature: 34 °C; time window: 0-4 h after rhamnose induction
# Description: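 In vivo DNA recorder in E. coli TOP10(DE3) ΔrhaA at 34 °C. Each TEVp single-site mutant (parent TEVp 0) is paired with a single-site variant of the 7-mer TEVs (canonical ENLYFQ|S). The substrate sits between flexible linkers in a Bxb1-sfGFP-TEVs-SsrA fusion, so cleavage stabilises Bxb1 and speeds flipping of a recombination array, read by NGS. The value is the raw area under the fraction-flipped curve over 0-4 h after rhamnose induction (AUC4h), with ≥20 reads per time point. It is not background-subtracted; inactive controls average about 0.047.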
# 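Also: Bxb1 expression induced with 0.2% (w/v) L-rhamnose at OD600 near 0.5, cultures sampled hourly, flipped fraction per protease–substrate barcode pair counted by paired-end Illumina sequencing.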
Variant,area with substrate ENLYAQS,area with substrate ENLYDQS,area with substrate ENLYEQS,area with substrate ENLYHQS,area with substrate ENLYIQS,area with substrate ENLYKQS,area with substrate ENLYMQS,area with substrate ENLYNQS,area with substrate ENLYPQS,area with substrate ENLYQQS,area with substrate ENLYRQS,area with substrate ENLYSQS,area with substrate ENLYTQS,area with substrate ENLYVQS,area with substrate ENLYWQS,area with substrate ENLYGQS,area with substrate ENLYYQS,area with substrate ENLYCQS,area with substrate ENLYLQS
H29E,0.0745,0.0642,0.108,0.0675,0.153,0.0489,0.108,0.0744,0.0604,0.0277,0.0742,0.0948,0.0881,0.139,0.0992,–,–,–,–
H29L,0.107,0.0586,0.0637,0.0645,0.107,0.0649,0.0818,0.0776,0.0771,0.0674,0.0641,0.0791,0.0879,0.144,–,0.0674,–,–,–
H29D,0.0699,0.0519,0.061,0.08,0.14,0.0572,0.0801,0.076,0.0831,0.0724,0.0494,–,0.0929,–,0.0742,0.0575,0.0661,–,–
H21G,0.0713,0.0632,0.0645,0.0724,0.139,0.0538,0.0772,0.0629,0.0697,0.0693,0.0568,0.0743,0.0992,0.108,0.0805,0.0593,0.0664,0.0888,–
H21N,0.0748,0.0616,0.0314,0.0546,0.104,0.061,0.0967,–,0.069,0.0564,0.0574,0.0636,–,0.107,0.0713,0.0668,–,0.0687,–
H21D,0.0602,0.0564,0.0516,0.0772,0.0831,0.0315,0.0686,0.0649,0.068,0.0446,0.0529,0.0672,–,0.0838,0.0594,0.0572,–,0.0602,0.0516
L22W,0.0491,–,0.0462,–,0.0513,0.0543,0.0728,0.0453,0.0357,0.0375,–,0.0513,0.0224,–,0.046,0.0596,–,–,0.027
L33P,0.043,–,0.0649,0.041,0.0504,0.0501,0.0499,0.0405,0.0548,0.045,0.0505,0.0445,0.0417,0.0443,0.0516,0.0467,0.0515,0.0467,–
R10V,0.0609,–,0.0665,0.0746,0.0922,0.0913,0.0714,0.0641,0.0739,0.052,0.067,–,–,–,0.0484,0.0698,0.0636,0.063,0.0749
R10G,0.0763,0.0726,0.0663,0.0653,0.0996,0.0389,0.0748,0.0572,0.0778,0.0529,0.0604,0.0621,0.0798,0.126,0.077,0.0612,0.0593,–,0.0864
D27A,0.0692,0.0584,0.0653,0.0592,0.106,0.0395,0.0836,0.0747,0.0735,0.0522,0.0539,0.0695,0.0819,–,0.0749,0.0592,0.0597,–,0.0781
S32H,0.076,0.0729,0.0715,0.0614,0.106,0.0444,0.0846,0.0635,0.075,0.0502,0.0512,0.0615,–,0.117,0.0736,0.0559,0.0727,–,0.0811
S18R,0.0824,0.0482,0.0608,0.0588,0.123,0.0593,0.0869,0.0543,0.0627,0.0541,0.0723,0.0451,0.0785,0.0972,0.064,–,0.0536,0.0538,0.157
S18K,0.0644,0.0613,0.065,0.03,0.108,0.0435,0.0933,0.0568,0.0554,0.0574,–,0.0638,–,0.0938,0.077,–,–,–,0.0682
N13R,0.0946,0.0624,0.0681,0.0675,–,0.0646,0.0859,0.0644,0.0725,0.0575,0.0562,0.0925,0.0709,0.0907,0.0767,0.0927,0.0617,–,0.0886
S4R,0.0718,0.0591,0.0736,0.069,–,0.0599,0.159,0.074,–,0.0719,0.0803,0.0482,–,0.165,–,–,–,–,0.102
T31W,0.0771,0.0535,0.0966,0.0627,0.103,0.0442,0.0705,0.067,0.0718,0.0422,0.0609,0.091,0.0905,0.0639,0.0814,0.0805,0.0535,–,0.0813
T31F,0.0791,0.0593,0.071,0.0643,0.0931,0.0523,0.105,0.0669,0.0696,0.0609,0.0623,0.0743,0.0493,0.0815,0.0732,0.0526,–,–,0.0731
T23S,0.076,0.064,0.0749,0.0684,0.102,0.0536,0.0754,0.0606,0.0695,0.0524,0.0488,0.0787,0.0735,0.096,0.0803,0.061,0.0842,–,–
Y12S,0.0748,0.057,0.0902,0.0616,0.102,0.0548,0.0922,0.0742,0.0732,0.0274,0.0646,0.0704,0.0723,0.113,0.0651,–,0.092,–,0.0841
Y12W,0.0669,0.0593,0.072,0.0666,0.124,0.0538,0.0751,0.0797,0.0722,–,0.0573,0.0716,0.0783,0.107,0.0642,0.0639,0.0669,–,–
Y12H,0.1,–,0.0663,0.0656,0.132,0.0632,0.124,0.0724,0.068,0.0688,0.0561,–,0.113,0.136,0.068,0.0684,0.0651,0.102,0.0902
